Screen size: about 360,000 compounds; about 740 (0.21%) were called active. The inconclusive results got no clear call from the source; some entries with a clear call stand among them for comparison. Calls follow the shape of the dose curve; as a rule, active = well fitted inhibition curve with a large enough effect; inconclusive = small, poorly fitted or top-dose-only effect; inactive = no such curve, though single readings can be large or run the other way. Potencies of inconclusive entries are left out as doubtful fits.
The compounds below were run on Plasmodium falciparum AMA1 (3D7) - RON2 peptide interaction (assay: qHTS for Inhibitors of AMA1-RON; Towards Development of Antimalarial Drug Lead: Primary Screen). Conditions: AlphaScreen AMA1-biotinylated RON2 peptide binding; activity change, negative = inhibition: at 58.2 µM (top of the series) unless noted.
How it was run: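 AMA1 (3D7) with his tag at 25 nM final met compounds first, then biotinylated RON2 peptide at 25 nM; detection used donor plus acceptor beads, 10 µg/mL apiece, read by AlphaScreen after 30 min at room temperature.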
Also: nearly all actives have a fitted effect of over 45% in size.
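For activity change, negative = inhibition in this document: 0% = vehicle wells and -100% = peptide control.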
Potency is read from the fitted curve at half-maximal effect; tags tell the direction and shape of the fitted curve.

Structure (SMILES) | Potency | activity change, negative = inhibition
O=C(/C=C/c1ccc(O)c(O)c1)NC(=O)c1ccccc1O | inconclusive [inhibitor, partial curve] | –
COc1cc(OC)c2ccc(=O)oc2c1C(CCN1CCN(c2ccccc2)CC1)c1ccc(N(C)C)cc1 (centres undefined) | active: 25.1 µM | –
CCOc1ccc(Nc2ccc(S(=O)(=O)N3CCOCC3)cc2[N+](=O)[O-])cc1 | inconclusive [inhibitor, partial curve] | –
COc1ccc(C(=O)c2coc(-c3ccccc3C(=O)O)c2C(=O)O)cc1 | – | inactive: -11.8%
c1ccc(CN2CCN(C3=Nc4cccc5cccc3c45)CC2)cc1 | inconclusive [inhibitor, partial curve] | –
CCN(Cc1ccccc1)S(=O)(=O)c1ccc(C(=O)N(CCCN(C)C)c2nc3cc(C)cc(C)c3s2)cc1 | inconclusive [inhibitor, partial curve] | –
COc1ccc(Nc2cc(C)c3ccccc3n2)cc1 | inconclusive [inhibitor, partial curve] | –
Clc1cccc(OCCn2cncn2)c1Cl | inconclusive [inhibitor, single point] | –
Cc1cc(NC(=O)CSc2nc3ccccc3n2CCC#N)no1 | inconclusive [inhibitor, partial curve] | –
CC1C(=O)N(Cc2cn(Cc3ccco3)nn2)CCS(=O)(=O)N1Cc1ccc(-c2cccc(N(C)C)c2)cc1 (centres undefined) | inconclusive [inhibitor, single point] | –
Cc1ccc(NC(=O)c2cc(C)n(-c3cccc(C)c3)c2C)cc1 | inconclusive [inhibitor, partial curve] | –
Cc1ccc(-c2ccc(C(=O)Nc3ccccc3)o2)c2ccccc12 | inconclusive [inhibitor, partial curve] | –
O=C(Nc1cc(Cl)ccc1-n1cncn1)c1ccccc1OC(F)F | – | inactive: 3.38%
CC1=C(C)CN2CC(C#N)=C(N)C2C1 (centres undefined) | inconclusive [inhibitor, single point] | –
CCC(=O)c1ccccc1OCCN1CCN(Cc2ccccc2)CC1 | inconclusive [inhibitor, partial curve, poor fit] | –
COC(=O)C1=C(C(=O)OC)[C@@H]2N(C)c3ccc(OC)cc3[C@@]23C[C@@H](C(=O)OC)N(C(=O)CC(C)C)C3=N1 | inconclusive [inhibitor, single point] | –
COc1ccc(NC(=O)Nc2cccc(F)c2)c(OC)c1 | inconclusive [inhibitor, full curve] | –
CCCSC(=S)NC1CCS(=O)(=O)C1 (centres undefined) | inconclusive [inhibitor, single point] | –
CCOc1ccc(-c2ccc(SCC(=O)NC3CCCCC3)nn2)cc1 | – | inactive: -4.8%
Cc1ccc(NC2c3ncccc3C(=O)N2c2ccccc2C)cc1C (centres undefined) | inconclusive [inhibitor, partial curve] | –
O=C(N/N=C/c1cc2c3c(c1O)CCCN3CCC2)c1ccccc1O | inconclusive [inhibitor, partial curve] | –
COc1cc(SC)ccc1C(=O)Nc1ccc2c(c1)CCC2 | – | inactive: 5.89%
CCN(CC)C(=O)c1csc(Nc2ccc(C)cc2)n1 | – | inactive: -6.5%

Structure (SMILES) | Potency | activity change, negative = inhibition
O=C1C(Cl)=C(Oc2ccccc2)C(=O)c2ccccc21 | inconclusive [inhibitor, partial curve] | –
Cc1c2ccccc2nc2c(F)c(NCCO)c(F)c(F)c12 | inconclusive [inhibitor, partial curve] | –
Cc1cc(C)c(C)c(S(=O)(=O)N2CCN(C(=O)C3CSC4(C)CCC(=O)N34)CC2)c1C (centres undefined) | inconclusive [inhibitor, single point] | –
CCCNC(=O)C1(C)CCN(Cc2cc(-c3ccccc3)on2)C1 (centres undefined) | – | inactive: 18.5%
CCN(Cc1ccccc1)S(=O)(=O)c1csc(C(N)=O)c1 | – | inactive: 7.23%
CN(C)c1ccc(C(CNC(=O)c2ccccc2)c2c[nH]c3ccccc23)cc1 (centres undefined) | inconclusive [inhibitor, single point] | –
Cc1ccc(C)c(S(=O)(=O)N2CCN(CC(=O)N3CCc4ccccc4C3)CC2)c1 | inconclusive [inhibitor, partial curve] | –
Cc1cccc(NC(=O)c2ccc(COc3cccc4ccccc34)o2)n1 | inconclusive [inhibitor, partial curve] | –
CCOC(=O)[C@]12Cc3cc(Cl)ccc3[C@H]1N(CC(=O)OC)C(=O)c1ccccc12 | – | inactive: 5.52%
Cc1ccccc1OCC(=O)Nc1cc(S(=O)(=O)N2CCCCC2)ccc1N1CCN(C)CC1 | inconclusive [inhibitor, partial curve] | –
COC(=O)c1cc(=O)n(Cc2ccco2)c(=Nc2ccc(F)c(Cl)c2)s1 | inconclusive [inhibitor, full curve] | –
COc1cc(C2NCC(c3ccc(Cl)cc3Cl)c3c2[nH]c2ccccc32)cc(OC)c1OC (centres undefined) | inconclusive [inhibitor, partial curve] | –
CN(C)c1ccc(Cc2ccc(N(C)C)cc2)cc1 | active: 14.1 µM | –
CCOC(=O)c1cc(C)n(-c2ccccc2)c1C | inconclusive [inhibitor, partial curve] | –
COc1ccc(/C=C2\CCc3ccccc3C2=O)cc1OC | inconclusive [inhibitor, partial curve] | –
CC1CCCCC1NC(=O)COC(=O)c1c2c(nc3ccccc13)/C(=C\c1ccco1)CC2 (centres undefined) | inconclusive [inhibitor, partial curve, poor fit] | –
Cc1cccc2sc(N(CCCN(C)C)C(=O)c3ccc(C(=O)c4ccccc4)cc3)nc12 | inconclusive [inhibitor, single point] | –
CCCCOc1ccc(-c2nnn(CC(=O)NCCc3c[nH]c4ccccc34)n2)cc1 | – | inactive: -1.59%
COc1ccc2c3c([nH]c2c1)C1(NCC3)C(=O)Nc2ccccc21 (centres undefined) | – | inactive: -6.27%
COc1cccc2c1C(=N)c1c(O)c3c(c(O)c1C2=O)CC(O)(C(C)=O)CC3OC1CC(N)C(O)C(C)O1 (centres undefined) | inconclusive [inhibitor, single point] | –
c1ccc(-c2nc3nonc3nc2-c2ccccc2)cc1 | inconclusive [inhibitor, partial curve] | –
COc1ccccc1CN1CCN(C(=O)c2ccco2)CC1 | inconclusive [inhibitor, partial curve] | –
Cc1ccc(C(=O)Nc2nnc(CC(=O)N/N=C/c3ccc(O)c(O)c3)s2)cc1 | inconclusive [inhibitor, single point] | –

Structure (SMILES) | Potency | activity change, negative = inhibition
Cc1nn2c(nc(N3CCCCC3)c3ccccc32)c1C=O | – | inactive: 18.3%
COc1ccc(N2CCN(C(=O)CN3C(=O)NC(c4ccc(OC)cc4)(c4ccc(OC)cc4)C3=O)CC2)cc1 | inconclusive [inhibitor, single point] | –
CCCN1C(=O)c2cc(C(=O)Nc3ccc(OC)cc3OC)ccc2C1Nc1ccc(OC)cc1OC (centres undefined) | active: 14.1 µM | –
CN1CCN(/N=C/c2ccc(-c3ccc([N+](=O)[O-])cc3Cl)o2)CC1 | inconclusive [inhibitor, single point] | –
COc1cccc(CNn2cnnc2)c1O | – | inactive: 14.2%
COc1cc(CCN=Cc2cc(Cl)cc(Cl)c2O)c([N+](=O)[O-])cc1OC | – | inactive: 96.2%
FC(F)(F)c1ccccc1CN1CCN(C2CCCCCC2)CC1 | inconclusive [inhibitor, partial curve] | –
Cc1ccc(C2=CC(c3cccs3)n3nnnc3N2)cc1 (centres undefined) | – | inactive: -5.68%
Cc1nn(C(C)CC(=O)O)c(C)c1Br (centres undefined) | – | inconclusive: -7.81% [inhibitor]
Cc1cccc(NP(C)(=O)c2nc3c(s2)CCCC3)c1 (centres undefined) | inconclusive [inhibitor, single point] | –
S=C(c1ccc(N2CCCC2)c(Br)c1)N1CCCCC1 | inconclusive [inhibitor, partial curve] | –
O=[N+]([O-])c1cccnc1N1CCN(Cc2ccc3c(c2)OCO3)CC1 | inconclusive [inhibitor, single point] | –
COc1ccc(CN2CCN(Cc3ccccc3C(F)(F)F)CC2)c(OC)c1 | inconclusive [inhibitor, single point] | –
Cc1ccc(SCCNC(=O)/C=C/c2ccc([N+](=O)[O-])cc2)cc1 | inconclusive [inhibitor, full curve, poor fit] | –
CCCCOc1ccc(/C=N/Nc2cc(N3CCOCC3)nc(C)n2)cc1 | inconclusive [inhibitor, full curve, poor fit] | –
Cc1cccc(NC2=NCC(=O)N2Cc2cccs2)c1 | inconclusive [inhibitor, partial curve] | –
Cc1ccc(S(=O)(=O)N2CCOCC2)cc1NC(=O)COc1cccc(Oc2ccccc2)c1 | – | inactive: 1.26%
Cc1cccc(N2CCN(Cc3ccc([N+](=O)[O-])o3)CC2)c1C | inconclusive [inhibitor, single point] | –
CCOc1ccc(C(C)=O)cc1CSc1nnnn1-c1ccc(O)cc1 | – | inactive: 5.04%
Cc1ccsc1C(=O)N1CCCC(CCC(=O)NCc2ccccc2F)C1 (centres undefined) | inconclusive [inhibitor, partial curve] | –
O=C1CCCN1CC(O)CS(=O)(=O)c1ccccc1 (centres undefined) | inconclusive [inhibitor, single point] | –
O=C(CSc1ccc(-c2cccs2)nn1)c1cccs1 | – | inactive: 2.11%
CC1CCN(CCCCOc2ccc(C(C)(C)C)cc2)CC1 | inconclusive [inhibitor, single point] | –
